Test results published in the supplement of paper PMC10126150.
Sequences with one replicate were seen in a single cluster, so their values are uncertain.

System: ATP
Assay: switch fluorescence ratio, 500 uM ATP over buffer (Cy3 cluster intensity, sum of 5 cycles each) (fold (ratio)); higher = stronger signal-on switching upon ATP binding; sequences stand for … in TCGTCGGCAGCGTCAGATGTGTATAAGAGACAGTTTTTTTTTTTTTTTTTTTTTTTTT…TC
Conditions: aptamer strand: ATP DNA aptamer (quencher-CACCTGGGGGAGTATTGCGGAGGAAGG + anchor), 100 nM annealed; ATP concentration: 500 uM; one replicate
Outline: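 Exposure to 500 uM ATP lasted 15 min at 22 °C before imaging, and a selection-buffer image was taken beforehand, for Cy3-labelled switching-strand clusters on a modified Illumina MiSeq flow-cell annealed to 100 nM quencher-labelled ATP aptamer. Five buffer/ATP cycles were run with NaOH stripping and re-annealing between them. The fluorescence ratio per cluster is summed target-cycle over summed buffer-cycle Cy3 intensity, averaged per switch-domain sequence. Clusters outside 100-1000 RFU were excluded.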

Row | Sequence | switch fluorescence ratio
1 | CCGTCGTAA | 4.27
2 | ATGTATCAGT | 1.03
3 | TAAGGGACGC | 1.04
4 | GAGTATAATG | 0.998
5 | GTGTAGGTGT | 1.14
6 | CCTTGTCTTA | 1.01
7 | CGGGACAGGT | 1.25
8 | GCTAGCAT | 1.07
9 | GGGCATCCAC | 1.05
10 | TACCCCAGCG | 2.86
11 | GGGCCTTCTG | 1.03
12 | CTAGTGGTTC | 0.958
13 | GCGTCTCGAT | 0.96
14 | CCACTACGGC | 1.11
15 | GGGACACTTA | 1.03
16 | CTAGGATAGC | 0.986
17 | TAGAGCTTTA | 0.995
18 | GGAGTCGGTA | 0.912
19 | GAGTGGTTGA | 0.991
20 | CTGTATTCTC | 1.02
21 | TGGTGGTTGG | 1.01
22 | ACATAGGCAA | 0.999
23 | GTTCGTTTTC | 0.998
24 | AATTCTGACC | 1
25 | TCGTGACCTG | 0.97
26 | TGTATGGTGA | 1.04

Row | Sequence | switch fluorescence ratio
27 | CCCGCCTAAT | 1.5
28 | GCTCTGGCCA | 0.99
29 | TTTACTTTCG | 1.02
30 | AACCTAACCG | 1.19
31 | CAAGTGGTTC | 0.981
32 | TTCACGAGTC | 1.07
33 | CGTTCTTCTG | 0.983
34 | TATTAGCGG | 0.983
35 | GAGCGGGAAT | 1.04
36 | TCAAAATTGA | 0.998
37 | ACTTTTGAGA | 0.979
38 | GTGTTGGGGA | 0.965
39 | CTCTATCATT | 1.01
40 | TACATTAGGA | 0.97
41 | AAGAGGATAC | 1.03
42 | GATAATTTT | 1.08
43 | TGGCGGAGCT | 1.01
44 | ATACCACATG | 1.05
45 | CTGCACGGCG | 0.992
46 | AATTTATTCG | 1.02
47 | ACAGTACCAT | 1.4
48 | AAAAAGGTCT | 1.02
49 | TTATGATTG | 0.982
50 | TCAAAGCTCT | 1.09
51 | GCGAGGTATA | 1.01
52 | GATTCGGAGA | 1.1

Row | Sequence | switch fluorescence ratio
53 | GGCTCAGGG | 1.01
54 | TTTCGGGGTC | 1.07
55 | TTCGTCACTG | 0.922
56 | GCACAAGTTT | 0.983
57 | GCTTTACTTG | 1.03
58 | GTCATATTAC | 1.05
59 | CCATGTTTAC | 1.06
60 | AACCAACGAT | 1.39
61 | GATGAAAGCC | 1.04
62 | CACCACGATG | 1
63 | GAACTACGGG | 1.02
64 | ATGTCGTTTT | 0.963
65 | GGCTGATAGC | 0.977
66 | CTGTAAAATG | 1.02
67 | CATGTAGGCG | 0.915
68 | TGGTTCATTT | 1.06
69 | GGCGTTGGTT | 1
70 | GGGAGTCTTT | 0.962
71 | ATTCAGCTTA | 0.967
72 | ATATAGAACG | 1.04
73 | CTCGTGGCTA | 0.997
74 | TAACATGTGC | 1.06
75 | CTGTGCCGCC | 1.03
76 | ACGCTAAGAA | 1.18
77 | TTTCGCCAGT | 1.01
78 | AGATAGAC | 1.09

Row | Sequence | switch fluorescence ratio
79 | ACTGAATT | 0.988
80 | TTAGACTATT | 0.962
81 | CATCTAGGTG | 1.78
82 | TCAGGTAACG | 1.06
83 | AAGAGGTAGG | 0.987
84 | GAACACCTTA | 1.08
85 | CTCCTATTGG | 0.987
86 | CGCCGACTAC | 2.65
87 | GACTGCGAGC | 1.08
88 | CATTAAACGG | 1.01
89 | TAAATGTTG | 0.995
90 | AGATTTAATC | 1.01
91 | CCACCATTAA | 1.06
92 | ATCGCGATG | 0.993
93 | AGGTGAGTTG | 1.02
94 | CGTAATAGTG | 1.15
95 | AATTAACTAA | 1.01
96 | GGTTACACCG | 1.02
97 | CCCGGGGAAT | 1.86
98 | ATACGGAGT | 1.01
99 | TATCCTTGAC | 0.989
100 | AACTTCGTAG | 1.06
101 | GCCTGATTCC | 1.11
102 | GCTTATTTAG | 0.931
103 | GTATAGGGGA | 1.01
104 | ATGGTCTGTG | 0.958

Row | Sequence | switch fluorescence ratio
105 | GGGGCAGGCA | 0.938
106 | TGTCCACGGG | 1.1
107 | GTTTTATGT | 0.969
108 | GAGGTCAACG | 1.01
109 | TAGTCTTTT | 0.982
110 | CCGTCCGGAC | 1.1
111 | TATTTACTG | 1.06
112 | CGGGCATGCA | 1.01
113 | CGATGACTGG | 1.06
114 | CAAATGCTCA | 1.03
115 | GTAATATCTC | 1.16
116 | ACGGTGGCAT | 1.06
117 | ATCGGCAAAC | 2.07
118 | AAATTAGGG | 0.986
119 | ATACGTGAT | 1.11
120 | TTGGGAAAAC | 1.09
121 | CGCTGAACCC | 1.14
122 | TTCGAAGTCA | 0.965
123 | TGCGCGTGGG | 1.01
124 | TCAAATGTGT | 1.04
125 | CGACCGAGTA | 1.07
126 | AACCCCCCCC | 1.61
127 | GGGATGTCAG | 1.03
128 | AACACGGGGC | 1.05
129 | ATGAGACAGT | 0.995
130 | GGTCTGCTGA | 0.979

Row | Sequence | switch fluorescence ratio
131 | GAGAGGTCCT | 1
132 | TTCGGGTGCA | 1.01
133 | GTTGAGACGT | 1.02
134 | GTAATCCCAA | 1.55
135 | GGTACCAACC | 1
136 | GTTTATTCCA | 0.966
137 | CAGCGCAGTA | 1.14
138 | ATCATCCATC | 1.03
139 | ACGTCGAGGG | 1.01
140 | GGAAGATGAT | 1.04
141 | TTTAGGCTAG | 0.994
142 | TCGTCGGTCG | 0.958
143 | GCATGTGCTA | 1.01
144 | GAAGAAGCAA | 1.54
145 | GGATAGAAT | 0.942
146 | GGCATGTTGG | 1
147 | TGCGCGAGAG | 1.24
148 | GACAAACGAT | 1.27
149 | ATCTTAGCCT | 1.07
150 | GTTGTTAGGC | 1.04
151 | GATAGAAGTT | 0.991
152 | AGGTGGCTTC | 0.953
153 | ACAGCCGCGT | 1.25
154 | ATGAAGCTCG | 0.984
155 | CCAAGGGCGG | 1.01
156 | TCATTTTAGC | 1.01

Row | Sequence | switch fluorescence ratio
157 | TCATTATCGT | 0.989
158 | GGGGACGTAA | 1.12
159 | TAACGTG | 0.934
160 | ACAGTGGTGT | 1.15
161 | GGCATTCAAA | 1.01
162 | CGCCCCTCTG | 1.41
163 | TTAATGGTGA | 0.979
164 | AGGAGTTGTA | 0.969
165 | AGTGGGGAAA | 0.995
166 | TAGTATGG | 0.974
167 | ATCGTGGTGA | 1.01
168 | GATCGTTCAT | 0.998
169 | GCATAATCTG | 0.965
170 | AGTGTATGAT | 0.991
171 | TGGACGGAAT | 2.2
172 | TTGGGGCTAA | 1.01
173 | CGGCGGAGTG | 0.978
174 | GCTACCGAGA | 1.11
175 | ATCTTGGCA | 0.998
176 | CTCCGGTGGA | 1.14
177 | TACTCTGGCT | 0.998
178 | TTGCGTGCAT | 0.954
179 | GTGGATCAGA | 0.948
180 | GGCCTTTAAT | 0.968
181 | AGCTGAGACC | 1
182 | TGTACGGCAT | 1.07

Row | Sequence | switch fluorescence ratio
183 | CTATACCTCG | 1.02
184 | GCTGCGGTTA | 1.03
185 | TTGCGTCTTA | 1.06
186 | CTAGGACTAC | 1.1
187 | GATCATCATG | 0.997
188 | GTGGTCCGCT | 0.996
189 | CAATATGAAA | 1.03
190 | CATCAGAAGC | 1.01
191 | GATAATAGCA | 0.995
192 | CTTGTCAATG | 1.01
193 | CTCAATAGTA | 1.02
194 | CTTAATTTAT | 1.03
195 | TTTTTTCCAG | 0.97
196 | CTAAGGAATT | 0.99
197 | CGCTTGGGCA | 0.967
198 | CATGCACACG | 1.05
199 | TAAGATCCGG | 1.01
200 | TCGGTAAGTT | 0.978
201 | CGTTTTAGTT | 0.956
